From PubChem BioAssay (NCATS)
“And” between values parts separate entries of the source, which are not always exact repeats. Equal entries are not always repeated. Inconclusive means that the source gave no clear call. Such entries were picked first, then a sample of the others. Where the call is inconclusive, the potency comes from a doubtful curve fit. The source made the active and inactive calls. Calls follow the shape of the dose curve; as a rule, active = well fitted curve in the direction sought with a large enough effect; inconclusive = small, poorly fitted or top-dose-only effect, or another doubt; inactive = no such curve, though single readings can be large; an effect the other way counts as inactive or inconclusive.

Assays:
[1] = qHTS of pediatric cancer cell lines to identify multiple opportunities for drug repurposing: Primary screen for A673 cells (AID 1347092); details: A673 Ewing sarcoma viability, CellTiter-Glo ATP luminescence, 48 h; activity change, negative = cytotoxic: at 46 µM (top of the series) unless noted; also: nearly all actives have a fitted effect of over 45% in size
Method in brief: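 A673 cells (500-1,000 cells/well in growth media) were pre-incubated 5 h at 37 degrees C, then exposed to compounds for 48 h. Viability was read as CellTiter-Glo luminescence; concentration-response curves came directly from the primary screen.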

[2] = qHTS of pediatric cancer cell lines to identify multiple opportunities for drug repurposing: Primary screen for SK-N-MC cells (AID 1347093); details: SK-N-MC viability, CellTiter-Glo luminescence, 48 h; activity change, negative = cytotoxic: at 46 µM (top of the series)
Method in brief: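 Metabolically active cells were quantified by ATP-dependent luminescence (CellTiter-Glo, 15 min at room temperature) following 48 h treatment. Cells had been plated at 500-1,000 per well and settled for 5 h beforehand.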

[3] = qHTS of pediatric cancer cell lines to identify multiple opportunities for drug repurposing: Primary screen for BT-37 cells (AID 1347094)
Method in brief: (§1)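 Plated cells (500-1,000 per well, growth media) were allowed to settle for 5 hours, treated with compound dilutions for 48 hours, then lysed with CellTiter-Glo for 15 min at room temperature before luminescence reading.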

[4] = qHTS of pediatric cancer cell lines to identify multiple opportunities for drug repurposing: Primary screen for NB-EBc1 cells (AID 1347095)
Method in brief: as §1

[5] = qHTS of pediatric cancer cell lines to identify multiple opportunities for drug repurposing: Primary screen for U-2 OS cells (AID 1347096); also: nearly all actives have a fitted effect of over 50% in size
Method in brief: (§2)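 Cells (500-1,000/well) in growth media were settled 5 h at 37 degrees C, then given compounds for 48 h. Viability was read as CellTiter-Glo luminescence. Primary runs used MIPE at 11 points (0.78 nM-46 µM) and NPC at 8 points (0.59 nM-46 µM); follow-ups used 11 points.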

[6] = qHTS of pediatric cancer cell lines to identify multiple opportunities for drug repurposing: Primary screen for Saos-2 cells (AID 1347097); details: Saos-2 viability, CellTiter-Glo ATP luminescence, 48 h; activity change, negative = cytotoxic: at 46 µM (top of the series); also: nearly all actives have a fitted effect of over 40% in size
Method in brief: as §1

[7] = qHTS of pediatric cancer cell lines to identify multiple opportunities for drug repurposing: Primary screen for LAN-5 cells (AID 1347100); details: LAN-5 neuroblastoma viability, CellTiter-Glo luminescence, 48 h; activity change, negative = cytotoxic: at 46 µM (top of the series)
Method in brief: as §2

[8] = qHTS of pediatric cancer cell lines to identify multiple opportunities for drug repurposing: Primary screen for BT-12 cells (AID 1347101); also: nearly all actives have a fitted effect of over 25% in size
Method in brief: (§3)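 Cells (500-1,000/well) rested 5 h, then received compounds for 48 h; metabolically active cells were measured by CellTiter-Glo luminescence. Final concentrations spanned up to 46 µM (MIPE, 11-point) or 0.59 nM-46 µM (NPC, 8-point) in primary screens, 11-point in follow-ups.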

[9] = qHTS of pediatric cancer cell lines to identify multiple opportunities for drug repurposing: Primary screen for SK-N-SH cells (AID 1347098); also: nearly all actives have a fitted effect of over 65% in size
Method in brief: as §3

[10] = qHTS of pediatric cancer cell lines to identify multiple opportunities for drug repurposing: Primary screen for NB1643 cells (AID 1347099); also: nearly all actives have a fitted effect of over 50% in size
Method in brief: as §1
Potency is read from the fitted curve at half-maximal effect; tags tell the direction and shape of the fitted curve.

SMILES | Potency [1] | Potency [2] | Potency [3] | Potency [4] | Potency [5] | Potency [6] | Potency [7] | Potency [8] | Potency [9] | Potency [10]
COCCOC(=O)C1=C(C)NC(C)=C(C(=O)OC/C=C/c2ccccc2)C1c1cccc([N+](=O)[O-])c1 (stereo not given) | inconclusive: 26.6 µM [cytotoxic, single point] | inconclusive: 23.7 µM [cytotoxic, single point] | inconclusive: 30.9 µM [cytotoxic, single point] | inconclusive: 29.9 µM [cytotoxic, single point] | inconclusive: 21.1 µM [cytotoxic, single point] | inconclusive: 26.6 µM [cytotoxic, single point] | inconclusive: 29.9 µM [cytotoxic, single point] | inconclusive: 27.6 µM [cytotoxic, single point] |  | 
O=c1cc(N2CCOCC2)oc2c(-c3ccccc3)cccc12 | inconclusive: 5.9 µM [cytotoxic, full curve] | active: 9.35 µM | inconclusive: 5.44 µM [cytotoxic, partial curve] | inconclusive: 16.6 µM [cytotoxic, partial curve] |  | inconclusive: 4.69 µM [cytotoxic, partial curve] |  | inconclusive: 4.85 µM [cytotoxic, partial curve, poor fit] | inconclusive: 8.57 µM [cytotoxic, partial curve] | 
O=C(O)c1cccc(-c2noc(-c3ccccc3F)n2)c1 | inconclusive: 21.1 µM [cytotoxic, single point] | inconclusive: 33.5 µM [cytotoxic, single point] and inconclusive: 33.2 µM [cytotoxic, single point] | inconclusive: 24.6 µM [cytotoxic, partial curve] and inconclusive: 24.3 µM [cytotoxic, partial curve, poor fit] | inconclusive: 21.1 µM [cytotoxic, single point] | inconclusive: 21.1 µM [cytotoxic, partial curve, poor fit] |  |  | inconclusive: 17.4 µM [cytotoxic, partial curve] | inconclusive: 38.6 µM [cytotoxic, single point] | inconclusive: 16.8 µM [cytotoxic, single point] and inconclusive: 20.9 µM [cytotoxic, single point]
CCN(CC)C(=S)SSC(=S)N(CC)CC | inconclusive: 0.133 µM [cytotoxic, full curve, poor fit] | active: 18.7 nM and active: 49.5 nM and active: 119 nM | active: 24.3 nM and active: 815 nM and inconclusive: 1.23 µM [cytotoxic, full curve] |  | inconclusive: 248 nM [cytotoxic, full curve, poor fit] and inconclusive: 531 nM [cytotoxic, partial curve] |  | active: 23.5 nM and active: 39.4 nM and inconclusive: 15 nM [cytotoxic, full curve, poor fit] |  | inconclusive: 7.6 nM [cytotoxic, full curve] and active: 114 nM and inconclusive: 154 nM [cytotoxic, full curve, poor fit] | active: 83.3 nM and active: 124 nM and active: 668 nM
O=S1(=O)c2cccc3cccc(c23)N1CCCN1CCN(c2ccc(F)cc2)CC1 | inactive | inconclusive: 33.5 µM [cytotoxic, single point] | inactive |  | inactive |  |  |  | inconclusive: 30.7 µM [cytotoxic, single point] | 
Nc1ccccc1N | active: 15.4 µM | inconclusive: 21.7 µM [cytotoxic, partial curve, poor fit] | inconclusive: 7.96 µM [cytotoxic, full curve] |  | inconclusive: 24.3 µM [cytotoxic, partial curve] | active: 30.6 µM |  | inconclusive: 10 µM [cytotoxic, full curve] | inconclusive: 28 µM [cytotoxic, partial curve] | active: 30.6 µM
CCCC(=O)OC[C@@H](OC(=O)CCC)[C@@H](OC(=O)CCC)[C@H](Cn1c2nc(=O)[nH]c(=O)c-2nc2cc(C)c(C)cc21)OC(=O)CCC | inconclusive: 33.5 µM [cytotoxic, single point] | inconclusive: 33.5 µM [cytotoxic, single point] | inconclusive: 38.9 µM [cytotoxic, single point] | inconclusive: 26.6 µM [cytotoxic, single point] |  | inconclusive: 26.6 µM [cytotoxic, single point] | inconclusive: 16.8 µM [cytotoxic, single point] |  |  | 
COc1cc2nc(N3CCN(C(=O)C4CCCO4)CC3)nc(N)c2cc1OC (stereo not given) | inconclusive: 10.6 µM [cytotoxic, partial curve, poor fit] and inconclusive: 1.18 µM [cytotoxic, full curve, poor fit] | inconclusive: 0.0053 µM [cytotoxic, full curve, poor fit] | inconclusive: 27.6 µM [cytotoxic, partial curve, poor fit] and inconclusive: 30.6 µM [cytotoxic, partial curve, poor fit] |  | inactive |  |  |  |  | 
O=C(Nc1ccccc1)OCC(CN1CCCCC1)OC(=O)Nc1ccccc1 (stereo not given) | inconclusive: 26.6 µM [cytotoxic, partial curve, poor fit] | inactive | inconclusive: 43.7 µM [cytotoxic, partial curve, poor fit] | inactive |  | inconclusive: 33.5 µM [cytotoxic, partial curve, poor fit] |  | inconclusive: 34.7 µM [cytotoxic, single point] | inconclusive: 38.6 µM [cytotoxic, single point] | 
CCCC(=O)O[C@]1(C(=O)CCl)[C@@H](C)C[C@H]2[C@@H]3CCC4=CC(=O)C=C[C@]4(C)[C@@]3(F)C(=O)C[C@@]21C | inconclusive: 16.8 µM [cytotoxic, single point] | inconclusive: 33.5 µM [cytotoxic, single point] | inconclusive: 21.9 µM [cytotoxic, partial curve, poor fit] | inconclusive: 29.9 µM [cytotoxic, single point] |  | inconclusive: 23.7 µM [cytotoxic, single point] | inconclusive: 8.41 µM [cytotoxic, partial curve] | inconclusive: 11 µM [cytotoxic, partial curve] |  | 
CC(=O)Nc1ccc(O)cc1 | inconclusive: 18.7 µM [cytotoxic, partial curve, poor fit] | inconclusive: 0.0024 µM [cytotoxic, full curve, poor fit] | inconclusive: 19.3 µM [cytotoxic, partial curve] |  | inactive | inactive | inconclusive: 26.4 µM [cytotoxic, single point] | inconclusive: 6.85 µM [cytotoxic, partial curve] | inconclusive: 30.4 µM [cytotoxic, single point] | 
CNCCCCOc1ccccc1Cc1ccccc1 | active: 26.6 µM | inconclusive: 29.9 µM [cytotoxic, single point] | inconclusive: 34.7 µM [cytotoxic, single point] |  | inactive | inconclusive: 26.6 µM [cytotoxic, single point] | inconclusive: 23.7 µM [cytotoxic, single point] | inconclusive: 34.7 µM [cytotoxic, single point] |  | inconclusive: 16.8 µM [cytotoxic, partial curve, poor fit]
CCc1nn(CCCN2CCN(c3cccc(Cl)c3)CC2)c(=O)n1CCOc1ccccc1 | inconclusive: 13.3 µM [cytotoxic, single point] | inconclusive: 33.5 µM [cytotoxic, single point] | inconclusive: 19.5 µM [cytotoxic, partial curve] |  | inconclusive: 21.1 µM [cytotoxic, partial curve, poor fit] | inconclusive: 26.6 µM [cytotoxic, single point] |  | inconclusive: 8.71 µM [cytotoxic, partial curve] | inconclusive: 24.4 µM [cytotoxic, single point] | 
Oc1ccc(C2CCN(c3ccnc4ccccc34)CC2)cc1O | inconclusive: 2.96 µM [cytotoxic, partial curve] | inconclusive: 37.2 µM [cytotoxic, single point] | inconclusive: 19.3 µM [cytotoxic, partial curve] |  | inconclusive: 18.7 µM [cytotoxic, partial curve, poor fit] | inactive | active: 18.7 µM | active: 7.69 µM |  | inconclusive: 33.2 µM [cytotoxic, single point]
O=c1c(O)c(-c2ccc(O)c(O)c2)oc2cc(O)cc(O)c12 | inconclusive: 33.5 µM [cytotoxic, single point] | inconclusive: 29.9 µM [cytotoxic, partial curve, poor fit] | inconclusive: 30.6 µM [cytotoxic, single point] and inconclusive: 27.6 µM [cytotoxic, single point] | inconclusive: 18.8 µM [cytotoxic, partial curve, poor fit] |  | inconclusive: 14.8 µM [cytotoxic, partial curve] and inconclusive: 33.5 µM [cytotoxic, single point] |  | inconclusive: 38.5 µM [cytotoxic, single point] and inconclusive: 38.9 µM [cytotoxic, single point] | inconclusive: 19.4 µM [cytotoxic, single point] | 
